To fix the notation:
B1: CPEB3 Ribozyme (parent)
chain: UAACAGGGGGCCACAGCAGAAGCGUUCACGUCGCAGCCCCUGUCAGAUUCUGGUGAAUCUGCGAAUUCUGCUGUAUAUCUC

The source gives no read counts; variants with many changes may rest on few reads.

The variants in the data set derive from B1. Briefly: self-cleavage, relative activity (ratio to wild type); higher = more cleavage; in vitro, sequencing. The gist of the method: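 Relative activity compares each variant's cleaved/total read fraction with that of the unmutated ribozyme. To get these fractions, barcoded CPEB3 ribozyme libraries from rounds of error-prone PCR were transcribed with T7 RNA polymerase for 5 hours at 37°C and then given 15 min of DNase I treatment before EDTA was added. The RNAs were reverse transcribed with template switching and sequenced on Illumina, and DNA sequencing linked barcodes to variants. A minimum of 5 reads applied, and three batches were averaged.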
UAACAGGGGGCCACAGCAGAAGCGUUCACGUCGCAGCCCCUGUCGGACUCUGGUGAAUCUGCGCUUUCUGCUGUAUGUCUC [A45G U48C A64C A65U A77G]: the self-cleavage stood at 0.08.
The result for UAACAGGGGGCCACAGCAGAAGCGUUCACGUCGCAGCCCCUGUCGGACUCUGUUGAAUCUGCGAAUUCUGCUGUAUAUCUC [A45G U48C G53U] reads 0.36; that for UAACAGGGGGCCACAGCAGAAGCGUUCACGUCGCAGCCCCUGUCGGAUACUGGUGGAUCUGCGAAUUCUGCUGUAUAUCUC [A45G U49A A56G], 0.28.
The result for UAACAGGGGGCCACAGCAGAAGCGUUCACGUCGCAGCCCCUGUCGGAUUCUGGUGAGUCUGCGGAUUCUGCCGUAUAUCUC [A45G A57G A64G U72C] reads 0.56.
The value for UAACAGGGGGCCACAGCAGAAGCGUUCACGUCGCAGCCCCUGUCGGACUCUGGUGAAUCUGCGAAAUCUGCUGUAUAUCUC [A45G U48C U66A] was 0.12.
As to UAACAGGGGGCCACAGCAGAAGCGUUCACGUCGCAGCCCCUGUCGGAUUCUGGUGAGUCCGCGAAGUCUGCUGGAUAUCUC [A45G A57G U60C U66G U74G], the self-cleavage was 0.77.
On to UAACAGGGGGCCACAGCAGAAGCGUUCACGUCGCAGCCCCUGUCGGAUUCCGGUGAAUCUGCGAAAUCUGCUGUAUAUCUC [A45G U51C U66A], for which the self-cleavage was 0.33.
The value for UAACAGGGGGCCACAGCAGAAGCGUUCACGUCGCAGCCCCUGUCGGAUUCUGGUGAGUCUGAGAAUUCUGCUGUAUAUCUC [A45G A57G C62A] was 0.27.
Turning to UAACAGGGGGCCACAGCAGAAGCGUUCACGUCGCAGCCCCUGUCGGAUUCAGGUGAAUCUGCGAAUUCUGCUGUAUAUCAC [A45G U51A U80A], the self-cleavage worked out at 1.06.
Regarding UAACAGGGGGCCACAGCAGAAGCGUUCACGUCGCAGCCCCUGUCGGAUUCUGGAGAAUCUGCGGGUUCUGCAGUAUAUCUC [A45G U54A A64G A65G U72A], the self-cleavage worked out at 0.41.
In the case of UAACAGGGGGCCACAGCAGAAGCGUUCACGUCGCAGCCCCUGUCGGAUUCUGGUGAAUCUGCGGACUCUGCUGUAUAUCUC [A45G A64G U66C], the self-cleavage came out at 0.47.
The result for UAACAGGGGGCCACAGCAGAAGCGUUCACGUCGCAGCCCCUGUCGGAUUCUGGUGAAUUUGCGUAUUCUGCUGUAUAUCUC [A45G C59U A64U] reads 0.22.
The result for UAACAGGGGGCCACAGCAGAAGCGUUCACGUCGCAGCCCCUGUCGGAUCCUGGUGAGUCUGCGAAUUCUGCUGUAUAUCUC [A45G U49C A57G] reads 0.13; that for UAACAGGGGGCCACAGCAGAAGCGUUCACGUCGCAGCCCCUGUCGGAUUCUGGUGAAUCUGUGAAUUCUGCAGUAUAUCUU [A45G C62U U72A C81U], 0.35.
UAACAGGGGGCCACAGCAGAAGCGUUCACGUCGCAGCCCCUGUCGGAUCCAGGUGAAUCUGCGAAUUCUGCUGUAUAUCUC [A45G U49C U51A]: the self-cleavage is 0.42.
Regarding UAACAGGGGGCCACAGCAGAAGCGUUCACGUCGCAGCCCCUGUCGGAUUCUGGAGAAUCUGCGAAUCCUGCUGUAUUUCUC [A45G U54A U67C A77U], the self-cleavage was 0.17.
The result for UAACAGGGGGCCACAGCAGAAGCGUUCACGUCGCAGCCCCUGUCGGACUCUGGUGAGUGUGCGAAUUCUGCUGUAAAUCUC [A45G U48C A57G C59G U76A] reads 0.1.
Turning to UAACAGGGGGCCACAGCAGAAGCGUUCACGUCGCAGCCCCUGUCGGAUUUUGGUGAAUCUGCGUAUACUGCUGUAUAUUUC [A45G C50U A64U U67A C79U], the self-cleavage worked out at 0.14.
Regarding UAACAGGGGGCCACAGCAGAAGCGUUCACGUCGCAGCCCCUGUCGGACUCUGGUGCAUCUGCGAAUUCUGCUGUAUAUCCC [A45G U48C A56C U80C], the self-cleavage came to 0.21.
The value for UAACAGGGGGCCACAGCAGAAGCGUUCACGUCGCAGCCCCUGUCGGAUCCUGGUGGAUCUGCGAAUUCUGCUGUAUAUCUC [A45G U49C A56G] was 0.89; that for UAACAGGGGGCCACAGCAGAAGCGUUCACGUCGCAGCCCCUGUCGGAUUCUGGUGAAUCUGCGGGUUCUGCUGUAUAUCCC [A45G A64G A65G U80C] was 0.17.
As for UAACAGGGGGCCACAGCAGAAGCGUUCACGUCGCAGCCCCUGUCGGAUUCUGGUGAAUCUGCGGAUUCUGCUGUAUAUCCC [A45G A64G U80C], the self-cleavage was determined as 0.83.
The value for UAACAGGGGGCCACAGCAGAAGCGUUCACGUCGCAGCCCCUGUCGGAUCCUGGCGAAUCUGCGAAUUCUGCUGUAUAUCUC [A45G U49C U54C] was 0.49; that for UAACAGGGGGCCACAGCAGAAGCGUUCACGUCGCAGCCCCUGUCGGACUCUGGUGAAUCUGCGAAUUGUGCUGUAUAUCCC [A45G U48C C68G U80C] was 0.13; that for UAACAGGGGGCCACAGCAGAAGCGUUCACGUCGCAGCCCCUGUCGGAUGCUGGCGAAUCUGCGAAUUCUGCUGUAUAUCUC [A45G U49G U54C] was 0.16.
The value for UAACAGGGGGCCACAGCAGAAGCGUUCACGUCGCAGCCCCUGUCGGAUUCAGGUGAAUCUGCGAAUUCCGCUGUAUAUCUC [A45G U51A U69C] was 0.43; that for UAACAGGGGGCCACAGCAGAAGCGUUCACGUCGCAGCCCCUGUCGGACUCUGGAGAAUCUGCGAGUCCUGCCGUAUAUCUC [A45G U48C U54A A65G U67C U72C] was 0.19; that for UAACAGGGGGCCACAGCAGAAGCGUUCACGUCGCAGCCCCUGUCGGAUUCUCGAGAAUCUGCGUAUUCCGCUGUAUAUCCC [A45G G52C U54A A64U U69C U80C] was 0.52.
The value for UAACAGGGGGCCACAGCAGAAGCGUUCACGUCGCAGCCCCUGUCGGAUUCCGGUGAAUCUGCGAAUCCUGCUGUAUAUCUC [A45G U51C U67C] was 0.61; that for UAACAGGGGGCCACAGCAGAAGCGUUCACGUCGCAGCCCCUGUCGGAUUCUGUUGAAUCAGCGAAUUCUGCUGUAUAUCUC [A45G G53U U60A] was 0.9; that for UAACAGGGGGCCACAGCAGAAGCGUUCACGUCGCAGCCCCUGUCGGAUCCUGGUGAAUCUGCGAAUCCUGCUGUAUAUCAC [A45G U49C U67C U80A] was 0.12.
Turning to UAACAGGGGGCCACAGCAGAAGCGUUCACGUCGCAGCCCCUGUCGGACUCUGGUGAACCUGCGAAUUCUGCUGUAUAUCUC [A45G U48C U58C], the self-cleavage stood at 0.2.
The value for UAACAGGGGGCCACAGCAGAAGCGUUCACGUCGCAGCCCCUGUCGGAUUCUAGUGAAUCUGCGAAUCCUGCUGUAUAACUC [A45G G52A U67C U78A] was 0.37; that for UAACAGGGGGCCACAGCAGAAGCGUUCACGUCGCAGCCCCUGUCGGAUUCUGGUGAAUCUCCGAAUUCUGCUGUAAAUCUC [A45G G61C U76A] was 0.22.
